Assay results as given in PubChem BioAssay (NCATS).
Inconclusive results, whose numbers are uncertain, are shown with a selection of clear calls. For some of these results: Where the call is inconclusive, the potency comes from a doubtful curve fit. For some of these results: A note “side channel” means that the fit belongs to a control or component signal, not to the main read-out. The source made the active and inactive calls. Unless noted, the call rests on the fitted dose curve; in most records, active means well fitted curve in the direction sought with a large enough effect; inconclusive means small, poorly fitted or top-dose-only effect, or another doubt; inactive means no such curve, though single readings can be large; an effect the other way counts as inactive or inconclusive.

How the values were obtained:
[1] = Cell Viability - LYMP2-002 (AID 977); conditions: LYMP2-002 lymphoblastoid cell viability, qHTS; activity change, negative = cytotoxic: at 92.2 µM (top of the series); further: potency means the concentration at half of the fitted maximal effect
Method in brief: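 Human lymphoblastoid LYMP2-002 cells, 2500 per well, exposed to compounds for 24 h at 37 C in complete medium; viability read as intracellular ATP by CellTiter-Glo luminescence, AC50 from Hill fits.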

[2] = Cell Viability - LYMP2-006 (AID 978); further: potency means the concentration at half of the fitted maximal effect; nearly all actives have a fitted effect of over 60% in size
Method in brief: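 Potency values are Hill-fit AC50s for decreases in intracellular ATP (CellTiter-Glo luminescence). LYMP2-006 lymphoblastoid cells, 2500 per well, were exposed to compound in complete culture medium for 24 hr at 37 C.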

[3] = Cell Viability - LYMP2-007 (AID 979); conditions: LYMP2-007 lymphoblastoid cell viability; activity change, negative = cytotoxicity: at 92.2 µM (top of the series);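 further: potency means the concentration at half of the fitted maximal effect; cells exposed to compound for 24 h before reading; nearly all actives have a fitted effect of over 60% in size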
Method in brief: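 Human lymphoblastoid LYMP2-007 cells (2500/well) preincubated 5 h at 37 C, then treated 24 h at 37 C in complete medium. Viability by CellTiter-Glo ATP luminescence after 30 min at room temperature; AC50 from Hill fits.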

[4] = Cell Viability - LYMP2-008 (AID 980); conditions: LYMP2-008 lymphoblastoid cell viability, qHTS; further: potency means the concentration at half of the fitted maximal effect; nearly all actives have a fitted effect of over 60% in size
Method in brief: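 LYMP2-008 lymphoblastoid cells (2500/well) plated 5 h, then treated 24 h at 37 C in complete medium. Viability read as intracellular ATP by CellTiter-Glo luminescence after 30 min at room temperature; AC50 from Hill fits.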

[5] = Cell Viability - LYMP2-010 (AID 981); further: potency means the concentration at half of the fitted maximal effect; nearly all actives have a fitted effect of over 55% in size
Method in brief: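 Human lymphoblastoid LYMP2-010 cells (2500/well) treated 24 h at 37 C in complete medium; viability read as intracellular ATP by CellTiter-Glo luminescence. AC50 from Hill fits of concentration-response data; tetraoctylammonium bromide positive control.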

[6] = Cell Viability - LYMP2-014 (AID 983); further: potency means the concentration at half of the fitted maximal effect; nearly all actives have a fitted effect of over 50% in size
Method in brief: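 LYMP2-014 human lymphoblastoid cells, 2500/well, treated 24 h at 37 C in complete medium; viability by CellTiter-Glo ATP luminescence after 30 min at room temperature. AC50 from Hill fits of qHTS concentration-response; tetraoctylammonium bromide positive control.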

[7] = Cell Viability - LYMP2-016 (AID 984); conditions: LYMP2-016 lymphoblastoid cell viability, qHTS; activity change, negative = cytotoxicity: at 92.2 µM (top of the series); further: potency means the concentration at half of the fitted maximal effect; nearly all actives have a fitted effect of over 55% in size
Method in brief: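 Cytotoxicity was scored by luminescent ATP content (CellTiter-Glo) after 24 h compound exposure at 37 C of a human lymphoblastoid line at 2500 cells/well. Concentration-response data were fitted to the Hill equation for AC50.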

[8] = Cell Viability - LYMP2-018 (AID 985);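 further: potency means the concentration at half of the fitted maximal effect; compound exposure lasted 24 hr at 37 °C; nearly all actives have a fitted effect of over 50% in size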
Method in brief: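 Human lymphoblastoid LYMP2-018 cells, 2500/well, settled 5 hr at 37 C then exposed to compound 24 hr at 37 C; intracellular ATP measured by CellTiter-Glo luminescence. AC50 from Hill-equation concentration-response fits.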

[9] = Cell Viability - LYMP2-020 (AID 986); conditions: activity change, negative = viability loss: at 92.2 µM (top of the series); further: potency means the concentration at half of the fitted maximal effect; nearly all actives have a fitted effect of over 55% in size
Method in brief: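 Human lymphoblastoid LYMP2-020 cells (2500/well) preincubated 5 h at 37 C, then treated 24 h at 37 C. Viability measured as intracellular ATP by CellTiter-Glo luminescence after 30 min at room temperature; AC50 from Hill fits.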

[10] = Cell Viability - LYMP2-024 (AID 988); conditions: LYMP2-024 lymphoblastoid cell viability; activity change, negative = cytotoxicity: at 92.2 µM (top of the series); further: potency means the concentration at half of the fitted maximal effect; nearly all actives have a fitted effect of over 60% in size
Method in brief: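 Human lymphoblastoid LYMP2-024 cells (2500/well) rested 5 hr, then treated with compound for 24 hr at 37 C in complete medium. Viability was measured as intracellular ATP by CellTiter-Glo luminescence. AC50 values came from Hill-equation fits.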

[11] = Cell Viability - LYMP1-002 - Assay at 40 hr (AID 994)
Method in brief: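 LYMP1-002 human lymphoblastoid cells (2500/well, complete medium) were treated with compounds for 40 hr at 37 C. Intracellular ATP was measured by CellTiter-Glo luminescence, and AC50 values came from Hill-equation fits of concentration-response data; tetraoctylammonium bromide was the positive control.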

[12] = biological target: Estrogen receptor (Homo sapiens) (UniProt P03372); experiment: qHTS assay for small molecule antagonists of estrogen receptor alpha signaling (AID 588513; active means well fitted curve in the direction sought with a large enough effect in the signal ratio, with a control signal flat, not every such curve was filed as active; inconclusive means small, poorly fitted or top-dose-only effect, or effect the other way, or a change in a side signal; inactive means no such curve, though single readings can be large or run the other way; the % refers to the signal ratio; further: on the % scale 0 is the no-effect control and ±100 the full control effect); conditions: ER-alpha-UAS-bla HEK293, beta-lactamase ratio, antagonist mode; activity, negative = inhibition: at 76.9 µM (top of the series) unless noted
Method in brief: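 Antagonist mode: inhibition of 0.5 nM 17-beta-estradiol-driven beta-lactamase reporter in HEK 293 ER-alpha-UAS-bla cells, 18 h at 37C, CCF4 readout after 2 h at RT. Normalised to estradiol and DMSO; titration fitted to Hill.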

[13] = biological target: Glucocorticoid receptor (Homo sapiens) (UniProt P04150); experiment: qHTS assay for small molecule agonists of glucocorticoid receptor signaling (AID 588532; active means well fitted curve in the direction sought with a large enough effect in the signal ratio, with a control signal flat; inconclusive means small, poorly fitted or top-dose-only effect, or a change in a side signal; inactive means no such curve, though single readings can be large or run the other way; the % refers to the signal ratio; further: potency means the concentration at half of the fitted maximal effect); conditions: HeLa MMTV-bla, beta-lactamase ratio, agonist, 18 h; activation: hits give high values, percent of dexamethasone control, DMSO zero
Method in brief: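 HeLa GRE-bla reporter cells; 18 h compound exposure at 37 C; 2 h CCF4 loading at room temperature; fluorescence at 460 and 530 nm; EC50 by Hill equation.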

[14] = biological target: Glucocorticoid receptor (Homo sapiens) (UniProt P04150); experiment: qHTS assay for small molecule antagonists of glucocorticoid receptor signaling (AID 588533; active means well fitted inhibition curve with a large enough effect in the signal ratio, with a control signal flat, not every such curve was filed as active; inconclusive means small, poorly fitted or top-dose-only effect, or effect the other way, or a change in a side signal; the % refers to the signal ratio;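 further: cells stimulated with 2 nM dexamethasone as agonist; potency means the concentration at half of the fitted maximal effect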); conditions: HeLa MMTV-bla, GRE beta-lactamase ratio, antagonist mode, 18 h; activity change, negative = inhibition: at 76.8 µM (top of the series)
[15] = biological target: Peroxisome proliferator-activated receptor gamma (Homo sapiens) (UniProt P37231); experiment: qHTS assay for small molecule agonists of peroxisome proliferator-activated receptor gamma signaling (AID 588536; active means well fitted curve in the direction sought with a large enough effect in the signal ratio, with a control signal flat, not every such curve was filed as active; inconclusive means small, poorly fitted or top-dose-only effect, or effect the other way, or a change in a side signal; inactive means no such curve, though single readings can be large or run the other way; the % refers to the signal ratio;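 further: 0% = DMSO basal wells and 100% = rosiglitazone at 2 µM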); conditions: HEK293 PPARg-UAS-bla, beta-lactamase ratio, 16 h; activation: at 76.7 µM (top of the series), percent of rosiglitazone response, DMSO as zero
Method in brief: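 HEK293 UAS-bla reporter line, 1% charcoal/dextran FBS; titration, 16 h, 37 C; CCF4 loading 2 h RT; fluorescence 460/530 nm. Normalized to rosiglitazone 2 uM = 100%, DMSO = 0%.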

[16] = biological target: Vitamin D3 receptor (Homo sapiens) (UniProt P11473); experiment: qHTS assay for small molecule agonists of vitamin D receptor signaling (AID 588543; calls by dose curve;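 further: 0% = DMSO basal and 100% = reference agonist control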); conditions: HEK293T VDR-UAS-bla, beta-lactamase ratio, 16 h; activation: at 76.8 µM (top of the series)
Method in brief: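 Agonist-mode beta-lactamase reporter: HEK293T VDR-UAS-bla cells in charcoal-stripped 2% FBS, compound series 16 h 37 C, CCF4 2 h RT. EC50 from Hill fit, scaled against DMSO and 50 nM calcitriol control.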

[17] = biological target: Thyroid hormone receptor beta (Homo sapiens) (UniProt P10828); experiment: qHTS assay for small molecule agonists of thyroid hormone receptor beta signaling (AID 588545; calls by dose curve;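 further: 0% = DMSO only and 100% = 10 nM T3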); conditions: TR-UAS-bla GripTite HEK 293, beta-lactamase ratio, agonist mode, 18 h; activation: at 76.7 µM, percent of T3 response, DMSO as zero
Method in brief: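 Stimulation of a TR-driven beta-lactamase reporter was quantified in GripTite HEK 293 cells. Compound series ran for 18 hrs; curves were normalized to T3 and DMSO controls and fitted to yield EC50.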

[18] = biological target: Thyroid hormone receptor beta (Homo sapiens) (UniProt P10828); experiment: qHTS assay for small molecule antagonists of thyroid hormone receptor beta signaling (AID 588547; active means well fitted inhibition curve with a large enough effect in the signal ratio, with a control signal flat, not every such curve was filed as active; inconclusive means small, poorly fitted or top-dose-only effect, or effect the other way, or a change in a side signal; the % refers to the signal ratio;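 further: cells stimulated with 0.4 nM T3 agonist during compound exposure; on the % scale 0 is the no-effect control and ±100 the full control effect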); conditions: TR-UAS-bla HEK293, beta-lactamase ratio, antagonist mode, 18 h
Method in brief: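 TR-UAS-bla GripTite HEK293 cells in 2% charcoal/dextran FBS medium; compounds 0.59 nM to 92 uM with T3 at 0.4nM final, 18 h at 37 C. Beta-lactamase read by CCF4 fluorescence (460/530 nm); Hill fits gave IC50 and efficacy.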

[19] = qHTS assay for small molecule disruptors of the mitochondrial membrane potential - 1 hr assay (AID 651754; calls by dose curve; further: potency means the concentration at half of the fitted maximal effect; nearly all actives have a fitted effect of over 35% in size); conditions: ratio change, negative = depolarisation: at 92.2 µM (top of the series)
Method in brief: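 HepG2 cells, attached overnight, were exposed to compound for 1 hr at 37C, then stained 30 min with a potentiometric dye. Ratio of red aggregate (590nm) to green monomer (535nm) fluorescence reports membrane potential; collapse shifts signal toward green.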

[20] = qHTS assay for small molecule disruptors of the mitochondrial membrane potential - 5 hr assay (AID 651755; calls by dose curve; further: potency means the concentration at half of the fitted maximal effect; nearly all actives have a fitted effect of over 40% in size); conditions: JC-1-type ratio dye; ratio change, negative = disruption: at 92.2 µM (top of the series)
Method in brief: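 HepG2 cells (2,000/well), attached overnight, exposed to compound 5 hr at 37C, then Mito-MPS dye 30 min. Fluorescence read for monomers (490/535 nm) and aggregates (540/590 nm).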

[21] = biological target: Tumor necrosis factor (Homo sapiens) (UniProt P01375); experiment: qHTS assay to identify small molecules that stimulate Tumor Necrosis Factor-alpha (TNF-alpha) secretion (AID 651757; active means well fitted curve in the direction sought with a large enough effect in the signal ratio; inconclusive means small, poorly fitted or top-dose-only effect, or a change in a side signal; inactive means no such curve, though single readings can be large or run the other way; the % refers to the signal ratio; further: 0% is about no effect); conditions: Human cells, HTRF 665/615 ratio; activation (TNF-alpha secretion): at 92.2 µM (top of the series)
Method in brief: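 THP-1 cells (3000/well) exposed to compounds 17 hrs at 37 C. Secreted TNF-alpha detected by HTRF with cryptate- and XL665-labeled anti-TNF-alpha antibodies after 3 hr at room temperature.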

[22] = qHTS assay to identify small molecules that stimulate interleukin-8 (IL-8) secretion (AID 651758; active means well fitted activation curve with a large enough effect in the signal ratio; inconclusive means small, poorly fitted or top-dose-only effect, or effect the other way, or a change in a side signal; the % refers to the signal ratio; further: 0% is about no effect); conditions: HTRF ratio (665/615); activation: at 92.2 µM (top of the series)
Method in brief: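 THP-1 cells (2000/well) exposed to compound 16 h at 37 C; secreted IL-8 then detected by HTRF with cryptate- and XL665-labelled anti-IL-8 antibody pair after 1-3 h at room temperature.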

[23] = biological target: Nuclear receptor ROR-gamma (Homo sapiens) (UniProt P51449); experiment: qHTS assay for small molecule antagonists of the retinoid-related orphan receptor gamma (ROR-gamma) signaling pathway (AID 651802)
Method in brief: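 CHO cells with TET-inducible ROR-gamma and RORE-luciferase reporter, dosed then doxycycline-induced. After 16 h at 37C, One-Glo luminescence read; decreased signal indicates antagonism.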

[24] = qHTS assay for cell viability of HEK293 cells (AID 743288); conditions: ATP luminescence (CellTiter-Glo), 18 h; max response: hits give low values; further: potency means the concentration at half of the fitted maximal effect; nearly all actives have a fitted effect of over 50% in size
Method in brief: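 Total intracellular ATP, measured with a luciferase-coupled reagent, indicates the number of viable HEK293 cells. Exposure to test chemicals lasts 18 h at 37 C in 1,536-well format at 2,000 cells/well.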

[25] = qHTS assay for cell viability of the p53RE-bla HCT-116 cell line (AID 743292); further: potency means the concentration at half of the fitted maximal effect; nearly all actives have a fitted effect of over 55% in size
Method in brief: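 ATP-based luminescence, 16 h compound exposure at 37 C, p53RE-bla HCT-116 cells at 4,000/well.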
Tags describe the fitted curve by direction and shape or compound fluorescence and quenching.

Chain of UniProt P10828 (P10828 whole entry, looked up): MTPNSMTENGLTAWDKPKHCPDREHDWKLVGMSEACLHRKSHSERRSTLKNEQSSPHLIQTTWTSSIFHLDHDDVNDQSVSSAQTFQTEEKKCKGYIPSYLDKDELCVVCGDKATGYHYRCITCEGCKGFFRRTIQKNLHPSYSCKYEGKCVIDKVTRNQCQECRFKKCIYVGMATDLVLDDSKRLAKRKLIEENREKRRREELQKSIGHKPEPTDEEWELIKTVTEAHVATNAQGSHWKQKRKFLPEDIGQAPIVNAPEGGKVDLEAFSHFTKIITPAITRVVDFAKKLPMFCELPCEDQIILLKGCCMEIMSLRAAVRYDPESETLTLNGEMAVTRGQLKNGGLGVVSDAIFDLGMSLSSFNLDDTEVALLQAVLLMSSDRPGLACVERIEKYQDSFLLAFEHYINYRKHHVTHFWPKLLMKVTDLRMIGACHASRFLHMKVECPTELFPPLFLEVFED
Chain of UniProt P51449 (P51449 whole entry, looked up): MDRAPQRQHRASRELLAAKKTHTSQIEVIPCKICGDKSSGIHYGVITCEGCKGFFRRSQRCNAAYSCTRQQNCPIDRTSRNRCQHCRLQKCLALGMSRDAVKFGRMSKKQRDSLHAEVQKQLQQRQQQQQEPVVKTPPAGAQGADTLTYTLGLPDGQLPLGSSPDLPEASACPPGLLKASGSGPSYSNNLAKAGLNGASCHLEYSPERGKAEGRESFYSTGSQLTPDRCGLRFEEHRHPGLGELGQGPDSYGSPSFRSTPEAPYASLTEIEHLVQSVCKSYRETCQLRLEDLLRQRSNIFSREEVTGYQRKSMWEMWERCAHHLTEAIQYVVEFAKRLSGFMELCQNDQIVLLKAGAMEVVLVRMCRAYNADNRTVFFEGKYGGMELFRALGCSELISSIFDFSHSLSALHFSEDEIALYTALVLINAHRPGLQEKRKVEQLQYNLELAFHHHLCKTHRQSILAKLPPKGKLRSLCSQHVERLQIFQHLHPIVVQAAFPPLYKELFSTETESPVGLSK
Chain of UniProt P01375 (P01375 whole entry, looked up): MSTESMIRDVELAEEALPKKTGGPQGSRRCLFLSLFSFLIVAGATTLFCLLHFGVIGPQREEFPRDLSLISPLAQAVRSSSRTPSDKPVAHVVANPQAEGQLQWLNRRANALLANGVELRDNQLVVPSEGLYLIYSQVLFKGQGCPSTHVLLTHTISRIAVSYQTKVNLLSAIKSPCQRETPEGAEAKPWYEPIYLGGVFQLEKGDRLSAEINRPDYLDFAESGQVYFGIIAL
Chain of UniProt P11473 (P11473 whole entry, looked up): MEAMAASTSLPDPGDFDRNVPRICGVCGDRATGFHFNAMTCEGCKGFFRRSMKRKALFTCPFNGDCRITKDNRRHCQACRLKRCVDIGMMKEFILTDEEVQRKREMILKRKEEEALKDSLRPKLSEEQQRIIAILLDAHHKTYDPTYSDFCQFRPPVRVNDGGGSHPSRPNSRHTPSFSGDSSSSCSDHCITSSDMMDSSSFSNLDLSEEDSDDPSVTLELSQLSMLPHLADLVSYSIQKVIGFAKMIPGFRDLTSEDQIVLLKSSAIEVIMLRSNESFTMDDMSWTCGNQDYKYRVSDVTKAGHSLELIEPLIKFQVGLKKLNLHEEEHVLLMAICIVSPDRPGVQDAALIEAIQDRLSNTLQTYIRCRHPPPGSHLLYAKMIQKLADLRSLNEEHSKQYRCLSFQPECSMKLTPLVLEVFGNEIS
Chain of UniProt P03372 (P03372 whole entry, looked up): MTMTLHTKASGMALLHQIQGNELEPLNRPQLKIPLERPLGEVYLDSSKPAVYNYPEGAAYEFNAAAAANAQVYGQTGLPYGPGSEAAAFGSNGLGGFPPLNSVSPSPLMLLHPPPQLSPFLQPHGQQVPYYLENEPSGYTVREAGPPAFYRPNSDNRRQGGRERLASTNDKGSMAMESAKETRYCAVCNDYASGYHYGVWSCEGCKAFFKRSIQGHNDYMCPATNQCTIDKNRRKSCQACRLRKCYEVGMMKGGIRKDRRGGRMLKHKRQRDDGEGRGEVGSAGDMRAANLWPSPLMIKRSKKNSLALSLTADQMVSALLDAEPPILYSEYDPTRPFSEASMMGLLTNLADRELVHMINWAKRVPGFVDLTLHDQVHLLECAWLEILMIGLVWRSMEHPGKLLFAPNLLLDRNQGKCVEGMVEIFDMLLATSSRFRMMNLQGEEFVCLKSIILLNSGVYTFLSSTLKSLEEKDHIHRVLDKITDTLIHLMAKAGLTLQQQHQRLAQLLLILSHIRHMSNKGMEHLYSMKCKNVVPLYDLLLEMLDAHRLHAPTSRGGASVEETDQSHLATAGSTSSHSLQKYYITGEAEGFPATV

Cc1cc(-c2ccc(N=Nc3cc(S(=O)(=O)O)c4ccccc4c3N)c(C)c2)ccc1N=Nc1cc(S(=O)(=O)O)c2ccccc2c1N
Potency [1]: inconclusive: 39.8 µM [cytotoxic, partial curve, poor fit] | Potency [2]: inconclusive: 31.6 µM [cytotoxic, partial curve] | Potency [3]: inconclusive: 31.6 µM [cytotoxic, partial curve] | Potency [4]: inconclusive: 39.8 µM [cytotoxic, partial curve] | Potency [5]: inconclusive: 39.8 µM [cytotoxic, partial curve] | Potency [6]: inconclusive: 25.1 µM [cytotoxic, partial curve, poor fit] | Potency [7]: inconclusive: 25.1 µM [cytotoxic, partial curve, poor fit] | Potency [8]: inconclusive: 50.1 µM [cytotoxic, partial curve, poor fit] | Potency [9]: inconclusive: 39.8 µM [cytotoxic, partial curve, poor fit] | Potency [10]: inconclusive: 31.6 µM [cytotoxic, full curve, poor fit] | Potency [11]: inconclusive: 39.8 µM [cytotoxic, partial curve] | Potency [12]: inactive | Potency [13]: inconclusive: 22.4 µM [side channel, falling, partial curve, poor fit] | Potency [14]: inconclusive: 39.8 µM [inhibitor, partial curve, poor fit] | activation [15]: inconclusive: -8.11% | Potency [16]: inactive | activation [17]: inactive: -21.6% | activity change % (negative = inhibition) [18]: inactive: -25.1% | Potency [19]: inconclusive: 31.6 µM [side channel, falling, partial curve] | Potency [20]: inconclusive: 35.5 µM [side channel, falling, partial curve] | activation (TNF-alpha secretion) [21]: inconclusive: 1.1% | activation [22]: inconclusive: 6.81% | Potency [23]: inactive | Potency [24]: inconclusive: 44.7 µM [cytotoxic, partial curve, poor fit] | Potency [25]: inconclusive: 39.8 µM [cytotoxic, partial curve, poor fit]
